From PubChem BioAssay AID889 (National Center for Advancing Translational Sciences (NCATS), 2007)
Out of some 75,000 compounds screened, about 15 (0.02%) were called active. The inconclusive results got no clear call from the source; some entries with a clear call stand among them for comparison. Calls follow the shape of the dose curve; as a rule, active = well fitted inhibition curve with a large enough effect in the main read-out, with a control signal flat (not every such curve was filed as active); inconclusive = small, poorly fitted or top-dose-only effect, or a change in a side signal; inactive = flat fitted curve, though single readings scatter. A potency beside an inconclusive call is a rough fit, not a confirmed value. A note “side channel” means that the fit belongs to a control or component signal, not to the main read-out.

Target: Caspase-7 (Homo sapiens) (UniProt P55210)
Chain of UniProt P55210 (P55210 whole entry, looked up): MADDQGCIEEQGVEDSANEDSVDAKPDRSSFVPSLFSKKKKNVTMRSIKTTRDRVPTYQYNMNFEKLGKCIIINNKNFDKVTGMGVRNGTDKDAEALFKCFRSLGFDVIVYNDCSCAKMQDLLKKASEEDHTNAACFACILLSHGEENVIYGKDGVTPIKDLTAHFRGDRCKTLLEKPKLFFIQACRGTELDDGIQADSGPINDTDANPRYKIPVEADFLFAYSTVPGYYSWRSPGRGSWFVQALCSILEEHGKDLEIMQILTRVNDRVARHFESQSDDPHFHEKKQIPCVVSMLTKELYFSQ
Assay: qHTS Assay for Allosteric/Competitive Inhibitors of Caspase-7; as to activity change, negative = inhibition: % of control where 0% means no effect
Settings: recombinant caspase-7, Ac-DEVD-AFC fluorescence rate; activity change, negative = inhibition: at 57.5 µM (top of the series) unless noted
Description: NIH Molecular Libraries Screening Centers Network [MLSCN]
NIH Chemical Genomics Center [NCGC]
PI Name: Dr. James Wells,
Dr. Enrique Perez-Paya, Dr.Janice Williams, Dr. Dennis Wolan, a person
The caspases (Cysteine Aspartyl Protease) comprise a related family of 14 dimeric proteases that are critical mediators of apoptosis (programmed cell death) and inflammation. The caspases represent an important class of drug targets for stroke, ischemia, cancer and inflammatory diseases. […] One goal of this project was to identify compounds that act as allosteric inhibitors via stabilizing the procaspase form of the enzyme. Previous work in Well's laboratory has shown that such allosteric inhibitors can be identified and these act by binding at the dimer interface of enzyme (Hardy, Lam et al., 2004).
The biochemical assay was configured using purified caspase 7 at a high enzyme concentration to promote formation of the homodimers and thus facilitate the identification of allosteric inhibitors. The overall goal was to identify reversible inhibitors with better drug-like properties than the currently available set of aspartyl-containing peptidomimetics that covalently bind the active site. Caspase 7 was assayed using the profluorescent substrate Ac-DEVD-AFC. After initiation of the assay with substrate the plates were rapidly read using an automated robotic system (Kalypsys, Inc.) to maintain consistent timing. A kinetic mode of detection was used where the initial rate was collected (estimated final product formation was ~10%). Compounds were screened as a concentration-titration series that ranged from 57 uM to 0.7 nM. Below is the protocol used for caspase 7.
NCGC Assay Protocol Summary:
Caspase 7 was prepared in buffer (50 mM HEPES pH 7.5, 50 mM KCl, 200 mM NaCl, 10 mM DTT, 0.1% CHAPS) at a concentration of 66.6 nM and 3 uL was dispensed to all wells using black solid Kalypsys 1536-well plates. 20 nL of DMSO containing compounds was added using a pin-tool (Kalypsys Inc.) to columns 5-48. Then 20 nL of DMSO solution from a control plate was added to columns 1-4. Controls were: Column 1, 16 point titration with each concentration in duplicate (1:1 dilutions in DMSO; final starting concentration was 57 uM) of the caspase 7 inhibitor Ac-DEVD-CHO (Alexis Biochemicals); Column 2, a 16 point titration with each concentration in duplicate of the free AFC fluorophore prepared in DMSO (Alexis Biochemicals), final starting was 40 uM; Column 3 neutral (DMSO only) control; Column 4: DMSO alone, to serve as a negative control (no substrate was added). Then 1 uL of 20 uM the substrate Ac-DEVD-AFC (Alexis Biochemicals) prepared in the same buffer was dispensed to all wells except columns 2 and 4 and the plates were immediately transferred (< 1 min) to the Viewlux. The plates were then exposed using 405 nm excitation/520 nm emission filters for 4 sec and read at 20 sec intervals for 3 min. Final enzyme concentration was 50 nM and the final substrate concentration was 5 uM.
Concentration-response curves were fitted to the data calculated from slope of the linear regression of fluorescent intensity versus time (the rate). The concentration-effect curves were then classified based on curve quality (r2), response magnitude and degree of measured activity. […] Inconclusive compounds had appreciable concentration-dependent effects on both the measured rate and the interpolated basal fluorescence intensity at the start of the reaction but where the basal fluorescent intensity was marginal (e.g. < 10-fold). Inconclusive compounds also encompass highly fluorescent compounds (>100-fold increases in fluorescent intensities values relative to controls) where artificial concentration-dependent decreases in the rate occurred at high compound concentrations due to fluorescent interferences.
Keywords: Caspase 7, proteases, profluorescent, MLSMR, MLSCN, NIH Roadmap, qHTS, NCGC
Potency is read from the fitted curve at half-maximal effect; tags tell the direction and shape of the fitted curve or compound fluorescence and quenching.

Potency, inconclusive:
Cc1csc(NC(=O)c2sc3nc(-c4cccs4)ccc3c2N)n1 7.94 µM [fluorescent, partial curve]
CCOC(=O)CC(=O)CSc1nc(C)nc2c1oc1ccccc12 31.6 µM [fluorescent, single point]
CCNc1ncc2nc(C)c(=O)n(C[C@H]3CCCO3)c2n1 15.8 µM [fluorescent, partial curve]
Cc1ccc(C)c2[nH]c(=O)c(C(c3nnnn3Cc3ccco3)N3CCc4ccccc4C3)cc12 (centres undefined) 31.6 µM [inhibitor, single point]
Cc1cc(N2C(=O)CC(N3CCN(c4ccc(C(=O)c5cccs5)cc4)CC3)C2=O)no1 (centres undefined) 39.8 µM [fluorescent, side channel, single point]
COc1ccc(-c2nc3cnc(Nc4ccccc4)nc3n(CCC#N)c2=O)cc1 3.16 µM [inhibitor, partial curve]
COCCn1c(=O)c(-c2cccc(C#N)c2)nc2cnc(Oc3cccc(Cl)c3)nc21 31.6 µM [inhibitor, single point]
COc1ccc(-c2cc(-c3ccccc3)nc(N3CCCC3)n2)cc1OC 25.1 µM [fluorescent, side channel, single point]
COc1ccc(C(=O)CC(=O)O)c2c1C=CC(C)(C)O2 25.1 µM [inhibitor, partial curve]
CC1=C(C(=O)OCC2CCCO2)C(c2ccncc2)C2=C(CCCC2=O)N1 (centres undefined) 25.1 µM [fluorescent, partial curve]
COc1ccc(-c2nc3cnc(N(C)C)nc3n(Cc3cccs3)c2=O)cc1 2 µM [fluorescent, side channel, full curve]
N#Cc1cc2cc3c(cc2nc1N1CCCCC1)OCCO3 6.31 µM [fluorescent, side channel, partial curve]
CCNc1ncc2nc(-c3ccc(F)cc3)c(=O)n(Cc3ccc(F)cc3)c2n1 3.98 µM [fluorescent, full curve]
CCn1nc(-c2ccccc2)c2nc3ccccc3nc21 15.8 µM [fluorescent, side channel, partial curve]
CCCC(=O)c1cc(F)c(N2CCN(C(=O)OCC)CC2)cc1C 12.6 µM [inhibitor, partial curve]
O=c1cnc2cnc(N3CCNCC3)nc2n1C1CC1 25.1 µM [fluorescent, partial curve]
CCCCNC(=O)c1cc2c(=O)n3cccc(C)c3nc2n(Cc2ccncc2)c1=N 3.16 µM [fluorescent, side channel, full curve]
CC(=O)C1=C(C)NC(SCC(=O)c2ccc(Cl)cc2Cl)=C(C#N)C1c1ccco1 (centres undefined) 15.8 µM [fluorescent, partial curve]
CCN1C(=O)c2cccc3c(NC(=O)c4ccc(S(=O)(=O)N5CCOCC5)cc4)ccc1c23 31.6 µM [inhibitor, single point]
COC(=O)C1=CNC=C(C(=O)OC)C1c1ccc(C(=O)OC)cc1 15.8 µM [fluorescent, partial curve]
N#Cc1c2c(c(N3CCN(CCO)CC3)n3c1nc1ccccc13)CCCC2 25.1 µM [fluorescent, partial curve]
Cc1cc(C)c(S(=O)(=O)N(CC(=O)N2CCOCC2)C2CCCCC2)c(C)c1 25.1 µM [inhibitor, partial curve]
COc1ccc2oc(=O)c(C(=O)NCC3CCCO3)cc2c1 (centres undefined) 15.8 µM [fluorescent, side channel, partial curve]
N#Cc1cc2c(=O)n3ccccc3nc2n(CCCn2ccnc2)c1=N 12.6 µM [fluorescent, side channel, partial curve]
Cc1ccc(NC(=O)c2cc(-c3ccc(C)o3)nc3ccccc23)nc1 25.1 µM [inhibitor, partial curve]
Cc1cc(C)n(-c2nc3ccccc3nc2N2CCN(C(=O)c3ccc(Cl)cc3)CC2)n1 39.8 µM [inhibitor, single point]
Cc1cc(N2CCCC2)ccc1/C=N/n1cnnc1 15.8 µM [inhibitor, partial curve]
N#CCCn1c(=O)c(-c2ccc(F)cc2)nc2cnc(Oc3cccc(Cl)c3)nc21 25.1 µM [fluorescent, partial curve]

Activity change, negative = inhibition, inactive:
COc1cccc(-c2nn(C)c3sc(C(=O)N4CCN(c5ccccn5)CC4)cc23)c1 -2.6%
C=CCn1c(=O)c(C(=O)Nc2nnc(C)s2)c(O)c2ccccc21 0.778%
COc1ccc(C(=O)N2CCC[C@@]3(CCN(C(=O)Nc4ccccc4)C3)C2)cc1 0.905%
O=C(NCc1ccco1)c1ccc(CS(=O)(=O)Cc2ccc(Cl)cc2)o1 -0.325%
Brc1ccc(OCCOCCN2CCOCC2)cc1 -0.667%
CCOC(=O)C(=O)C1(C(=O)OCC)Oc2cc(OC)cc(OC)c2C(=O)C1c1ccccc1 (centres undefined) -1.71%
N#CC1=C2SCN(Cc3ccco3)CN2C(=O)CC1c1cccc2ccccc12 (centres undefined) -10.8%
CN(Cc1ccccc1)C(=O)CCC(=O)N(C)Cc1ccccc1 0.184%
NC(=O)/N=N/C(N)=O -1.76%
O=C(O)c1[nH]c2c([N+](=O)[O-])cc([N+](=O)[O-])cc2c1C(=O)O 1.93% [at 11.5 µM]
CCOCCCNC(=O)c1cc2c(=O)n3cccc(C)c3nc2n1C -10.7%
COc1ccc(CC(=O)Nc2ccc(-c3noc(-c4cccc(OC)c4)n3)cc2)cc1 -0.881%
CCc1cc2cc(C(=O)Nc3ccccc3F)sc2s1 -2.25%
COc1ccc(Cl)cc1NC(=O)c1ccco1 -2.06%
O=C(c1cc(-c2ccc(O)cc2)on1)N1CCc2ccccc2C1 -7.69%
Cc1nc2ccccc2c(=O)n1NS(C)(=O)=O 0.35%
